# Data: ChEMBL document CHEMBL4888484, “Replenishing the malaria drug discovery pipeline: Screening and hit evaluation of the MMV Hit Generation Library 1 (HGL1) against asexual blood stage Plasmodium falciparum ,using a nano luciferase reporter read-out” (2022)
# Hit rate of the full screen: of about 4,800 compounds, about 410 (8.5%) showed an effect of 50% or more. The list shows a part of the results.
# Tested on: Plasmodium falciparum
# Assay: Confirmatory screen in NF54 pLDH assay, in single point, at 2uM, 72h
# Format: functional, Erythrocyte
# Details: timepoint 72 hour
row,Compound,% Inhibition [%]
1,CC1CCCCC1NC(=O)N1CCCC2(CC=CCC2)C1 (stereo not drawn),14
2,Cc1ccccc1Cc1nnc2n1CCOC2,5
3,CCCCC12CN(S(=O)(=O)c3ccccc3)CC(C)(CN(S(=O)(=O)c3ccccc3)C1)C2=O,-6
4,CC(C)C[C@H]1C(=O)NCCN1Cc1ncc(-c2ccccc2)o1,2
5,C[C@H](C#N)CNc1ncc(Br)cn1,11
6,CO[C@H]1CCOC2(CCN(C(=O)c3ccccc3F)CC2)C1,9
7,Cc1nn(CC2CC2)c(=O)n1-c1ccc(F)cc1,-11
8,Brc1cc(Br)c2nc(-c3cnccn3)ccc2c1,14
9,COc1ccc(-c2cc(C[C@H]3CNCC[C@H]3CC(=O)Nc3ccccc3)no2)cc1,13
10,Cc1noc(OCCc2ccccc2)n1,11
11,CCOC(=O)c1cc(F)cc(S(=O)(=O)Nc2ccnc3ncnn23)c1,-3
12,COc1ccc(CCNC(=O)C2CCN(c3nccn4nc5c(c34)CCCC5)CC2)cc1OC,23
13,COc1ccc(S(=O)(=O)N(CC(=O)NCc2cccnc2)C2CCCCC2)cc1OC,12
14,C#CCOCC(O)CN(Cc1c(-c2ccccc2)noc1N1CCC(C)CC1)CC1CCCO1 (stereo not drawn),-15
15,Cc1c(Cl)cccc1NC(=O)CN1N=C(C(=O)Nc2ccccc2)CCC1=O,-4
16,O=C(NCc1ccc(F)cc1F)c1ccc(Cn2ccn3nc4c(c3c2=O)CCCC4)cc1,-3
17,Cc1cc(-c2nnc(Cc3cccc(Cl)c3)o2)n(C)n1,-14
18,CN(C)c1ccc(NC(=O)C[C@@H]2C=CCC2)cc1,10
19,CC(C)c1cc(CN(Cc2cc(C(C)C)c(O)c(C(C)C)c2)C2CCCCC2)cc(C(C)C)c1O,98
20,CC(C)(C)NC(=O)CNC(=O)c1cccc(F)c1,-8
21,O=C(NCc1nccs1)[C@@H]1CCCN1C(=O)c1ccco1,-6
22,O=C(O)C1Cc2c([nH]c3ccccc23)C(c2ccc3c4c(cccc24)CC3)N1 (stereo not drawn),6
23,CCc1ccc(C(=O)NCCCC2CCCC2O)cc1S(=O)(=O)N1CCOCC1 (stereo not drawn),42
24,O=C(NCCN1CCCC1)c1cc2n(n1)CCN(Cc1cccc(F)c1)C2=O,-27
25,COc1ccc(-c2cnn3ccc(-c4ccc(-n5ccc(=O)cc5)cc4)nc23)cc1OC,10
26,Cc1cc(C)n(-c2c(C)[nH]c3ccccc23)n1,-2

row,Compound,% Inhibition [%]
1,C[C@H](C(=O)Nc1ccc(F)cc1Cn1ccsc1=O)C1CC1,-14
2,Cn1cc(Br)cc1C(=O)N1CC(O)(C2CC2)C1,5
3,COc1cccc(-c2noc3nc(C)cc(C(=O)N[C@@H](C)c4ccn(C)n4)c23)c1,-12
4,Cc1ccc(CCNC(=O)c2ccc(-c3nc(CS(=O)(=O)c4ccc(C)cc4)c(C)o3)cc2)cc1,-23
5,CCNc1nc(C)cc(Nc2ccc(NC(=O)c3cc(C)ccc3C)cc2)n1,99
6,Cc1cc(C(=O)Nc2c(F)cccc2OCc2ccccc2)on1,2
7,Fc1ccccc1-c1c2c(nc3ccc(Cl)cc13)CCCCCC2,-9
8,CC[C@@H](C(=O)NC)n1ccc2cc(S(=O)(=O)N3CCCCC3)ccc21,8
9,Cc1nn(C)c(C)c1S(=O)(=O)N1CCCN(c2ccc(F)c(F)c2)CC1,7
10,Cc1nnc(CNC(=O)Nc2cccc3c4c(oc23)CCCC4)o1,72
11,Cc1cc(F)ccc1-n1nnc(C(=O)O)c1-c1cccnc1,-4
12,COc1cccc(N2CCN(c3cc4n[nH]c(=O)n4cn3)CC2)c1,8
13,CN(C)c1nccc(NC[C@H](N)c2ccccc2)n1,-12
14,O=C(Nc1ccc(N2CCn3c(nc4cc(Cl)ccc43)C2)cc1)c1ccc(F)cc1,-9
15,O=C(c1ccc(F)cc1)c1c[nH]c(C(=O)NCc2ccc(F)cc2)c1,-17
16,Cc1ccc(S(=O)(=O)Nc2c(S(=O)(=O)c3ccccc3)c3nc4ccccc4nc3n2CCc2ccccc2)cc1,100
17,Cn1cc(-c2nn(S(=O)(=O)c3ccccc3)c(-c3cnn(C)c3)c2Cl)cn1,9
18,Cc1ccc(C)c(S(=O)(=O)NCCNc2ccc(Nc3ccncc3)nn2)c1,29
19,COc1ccc(-c2noc(CCn3c(=O)[nH]c4cc5c(cc4c3=O)OCO5)n2)c(OC)c1,6
20,CCNC(=O)c1nc(C(=O)NCc2ccco2)cs1,-12
21,Cc1ccoc1C(=O)Nc1ccc(Cc2nnc3ccccn23)cc1,-16
22,COc1ccc(-c2nn3c(C4CCN(C)CC4)nnc3s2)cc1,-7
23,CC1CC(C)CC2(C1)NC(=O)N(CCC1OCCO1)C2=O (stereo not drawn),-1
24,COC1(CNC(=O)NC2CC=CC2)CCC1,8
25,CN(C)c1nc(CN2CCC[C@H](c3n[nH]c(-c4ccccc4)n3)C2)ns1,2
26,COc1cc(NC(=O)N2CC(c3noc(-c4ccccc4)n3)C2)cc(OC)c1OC,3

row,Compound,% Inhibition [%]
1,CC(C)(C)CC(=O)Nc1ccccc1C(N)=O,13
2,CC1CN(C(=O)c2n[nH]c3ccccc23)CC(C)O1 (stereo not drawn),9
3,Cn1nnnc1NC/C=C/c1ccccc1,0
4,O=C(C[C@H]1CCN(C(=O)c2cc(F)ccc2F)C1)NC1CC1,-12
5,CCc1ccc(C(=O)Nc2cnc(-n3ccnc3)nc2)cc1,29
6,COc1ccc(NC(=O)C2(N(Cc3nc(-c4ccccc4)cs3)C(=O)Cn3nnc4ccccc43)CCCCC2)cc1,-3
7,CC(C)(C)OCCON=C(N)c1cccs1,13
8,Cc1nn(Cc2ccc(Cl)cc2)c(=O)n1-c1ccc(OCc2ccccc2)cc1,-5
9,CCC[N+]1(CC#C[C@@](O)(c2ccccc2)C(C)(CC)CC)CCCCC1,45
10,COC(=O)c1cn(CCc2c[nH]c3ccccc23)cc(C(=O)OC)c1=O,12
11,COC1CCC(CC(=O)N[C@H]2CC(=O)N(c3ccccc3)C2)CC1 (stereo partly drawn),10
12,CNCCc1c(-c2ccccc2)[nH]n(-c2ccccc2)c1=O,69
13,CCOc1ccc(C/C(=C/N)c2nc(-c3ccc(Cl)cc3)cs2)cc1,15
14,CC(=O)N(c1nc(COc2nc(C(C)(C)C)no2)cs1)c1ccccc1F,17
15,CCC(C)(C(=O)NC1CCCC1)N(C(=O)c1cccs1)C1CCCO1 (stereo not drawn),-10
16,Cc1cc(C(=O)Nc2nc(-c3ccc4c(c3)CCC4)n[nH]2)no1,7
17,COc1ccc2c(c1)CN(c1nnc(C3CC3)o1)CC2,9
18,Cc1ccc(F)cc1NC(=O)c1nnn(CC(=O)NCc2ccccc2Cl)c1C,-14
19,Cc1noc(Cn2c(=O)c3ccccc3n(CC(=O)Nc3ccc(F)cc3F)c2=O)n1,1
20,CN(CCN)c1ccc(Br)cc1C#N,9
21,O=C(CCC(=O)NCc1ccccc1)NCCCN1CCOCC1,6
22,O=C(NC(c1ccccc1)C1CCOC1)c1cn(C2CCOC2)nn1 (stereo not drawn),-1
23,Cc1ccc(NC(=O)[C@@H]2CC(=O)N=C(N3CCOCC3)N2)cc1Cl,10
24,Cn1cc(CCn2nccc2-c2ccc(F)c(Cl)c2)cn1,-2
25,CC(C)(CNC(=O)[C@](C)(N)c1ccccc1)C(=O)O,-1
26,O=C(NC1CCCC1)c1cc2c(Cl)ccc3c2n1CCO3,13

row,Compound,% Inhibition [%]
1,COCc1nncn1C1CN(C(=O)Cc2ccccc2C)C1,-8
2,CCOC[C@@H](O)CN(Cc1c(C)nn(-c2ccccc2)c1Oc1cccc(C)c1)C1CC1,8
3,O=C(Nc1sc2c(c1C(=O)O)CCC2)c1ccsc1,-3
4,COc1nc(N)nc(C(Cl)(Cl)Cl)n1,0
5,CC(C#N)CNCCC(C)c1ccccc1 (stereo not drawn),8
6,O=C(CN1C(=O)COc2cc(Br)ccc21)Nc1cccc2ccccc12,9
7,CCCn1nc(-n2cnnc2)c(NS(=O)(=O)c2ccc(Br)cc2)c1C,11
8,O=C(Cn1cccn1)N1CC(c2nc(-c3ncccn3)no2)C1,10
9,COc1cc(=O)c(C(=O)N2CCC(C(N)=O)CC2)nn1-c1ccc(F)c(F)c1,13
10,CCOc1cccc(-c2ccc3nc(-c4cccc(OC)c4)c(CCC(=O)NCCc4ccc(OC)c(OC)c4)n3c2)c1,1
11,Cc1cccc(N(C)C(=O)c2cc(-c3cccc(Cl)c3)[nH]n2)c1,10
12,CCC1CC(CC(=O)NS(=O)(=O)c2ccnn2C)CCO1 (stereo not drawn),0
13,CCc1ccccc1NC(=O)c1sccc1S(=O)(=O)N1CCc2ccccc2C1,12
14,CCc1cc(CC)c(-c2cc(-c3ccccc3)on2)c(CC)c1-c1cc(-c2ccccc2)on1,20
15,Cc1noc2nc(C3CC3)cc(C(=O)N3CCC[C@H](C)CC3)c12,-5
16,O=c1[nH]nc(-c2ccc3ccccc3c2)c2conc12,-1
17,CC(C)Oc1cccnc1C(=O)N(C)c1cnn(C)c1,10
18,CN(Cc1ccc(N2CCOCC2)cc1)S(=O)(=O)c1ccc2c(c1)OCCCO2,14
19,O=C(NCCC(=O)N1CCCCCC1)c1cc(Cl)c2c(c1)OCCCO2,3
20,Cc1ccc(NC(=O)C2C3NC(=O)N(c4ccccc4)C2(C)Oc2ccc(C)cc23)c(C)c1 (stereo not drawn),-9
21,O=C(c1cc(F)c(F)cc1Cl)N1CCC2CCC(C1)N2 (stereo not drawn),-18
22,COc1ccc(S(=O)(=O)N[C@H]2CO[C@@H](CN3CCC(F)(F)C3)[C@@H]2O)cc1,3
23,Cc1ccc(C(=O)N(Cc2cccc(F)c2)c2ccc(CC(=O)N[C@@H](C)c3ccccc3)cc2)cc1,89
24,c1ccc(Oc2ccc(-c3csc4nc5ccccc5n34)cc2)cc1,5
25,Cc1ccc(NC(=O)NCc2ccccn2)nc1,-12
